# The source gives no read counts; variants with many changes may rest on few reads.
# B1: LINE1-mini (parent)
# chain: GGCAGAGCUCAACACAGCGUGGCAAAGUGGCUGUGGCUAGACUGCC
# Variants of: B1
# Experiment: self-cleavage, relative activity (ratio to wild type); higher = more cleavage; in vitro, sequencing; the parent is a self-cleaving ribozyme
row,Variant,self-cleavage
1,A11C A14U C46A,0.06
2,C10U G29A C31G G33C,0.04
3,A11C C13A G29C C31G,0.02
4,A11C A12C G21C U38G,0.01
5,A11C A12C C37G,0.02
6,C10U U28C G40U C45A,0.03
7,A11C A26C G40A,0
8,A11C A26U A41U,0.19
9,A11C C13U A14G U32C G44A,0
10,A11C A14G G17A U20C G27A C31A C46A,0
11,C10U G33U G36A,0.04
12,C10U G36U C37A,0.04
13,A11C C18G U32G,0.02
14,A11C A14G U20A,0.02
15,A11C A12U C18A A39G C42A,0
16,A11C A12U A26C,0.02
17,A11C A12U A26U,0.08
18,A11C C15A G29U C46U,0.01
19,C10U U34A C42U,0.03
20,C10U G33C G35C,0.05
21,A11C C13U C15U,0.04
22,A11C A14C C23G G33C,0
23,A11C C15U C37A,0.03
24,C10U G29A G44A,0.12

row,Variant,self-cleavage
1,C10U U34A U43C,0.02
2,C10U U20A G27C G29U G40C,0.01
3,A11C C13A U28C,0
4,A11C C13U C31A G36A C37U,0.03
5,C10U U32C G33C,0.04
6,C10U U20C A39C,0.02
7,C10U G35C G44U,0.02
8,C10U U32C G36C G40C C42G,0.03
9,A11C A14U U32A G33U,0.02
10,A11C C18A G22A U28G,0.02
11,A11C A14G A39U,0.02
12,A11C C18A G22A C23A G27A,0.01
13,A11C A26U C45U,0.04
14,A11C C18U G35A,0.06
15,A11C C13G A26U,0.02
16,C10U G40U A41U G44A,0.03
17,A11C A14U G22A G29C,0.01
18,C10U G29U U38G,0.02
19,A11C C15U G21A C23G U32A,0
20,C10U U20C G29U U43A,0.02
21,C10U U20C G33U,0.02
22,A11C C15U C31A,0.01
23,C10U U20C U38G,0.01
24,A11C C15U G22A C31A,0

row,Variant,self-cleavage
1,A11C C13U G30C,0.02
2,A11C A26C C45G,0.02
3,C10U G35A C42A,0.01
4,A11C C15U C18G G36A A41G G44C,0.01
5,A11C A12G C15A,0
6,A11C A12G C15U C18G A25C,0
7,A11C A12G U38C,0.02
8,A11C C13U G29U,0.05
9,A11C A16G C45U,0
10,C10U U38A C46U,0.03
11,C10U G27C G29U U43A,0.06
12,A11C A26G G30U G36U G40C G44U,0
13,A11C A12U C42A C46U,0.01
14,A11C A14C G17A G44U,0.01
15,C10U U43C G44A,0.01
16,A11C C13A C37U,0.05
17,C10U U38A C42U,0.04
18,A11C C15G G30U A41C,0.02
19,C10U U32G U38C C45A,0.03
20,C10U U20A G27U,0.1
21,A11C A25U G36A,0.01
22,C10U U32G G44U,0.09
23,A11C C15A A24G A26U,0.01
24,A11C A12C G21U,0.01

row,Variant,self-cleavage
1,C10U U20C C37A A41C C45U,0.01
2,A11C C18A U28G,0.01
3,C10U U28C G44A,0.06
4,A11C A12G U28C U43C,0
5,A11C C18U G29C C45G,0.02
6,A11C A14U U38C A39C,0.04
7,A11C A12G U43C,0.05
8,A11C A12G U43A,0.07
9,C10U G27A U34C,0.05
10,A11C A12U A14U G33C,0
11,C10U U38G A41U,0.01
12,C10U G29C C42G C45U,0.03
13,A11C C13U C42U,0
14,A11C A25C G27A G35U,0.02
15,A11C A14C G33U,0.02
16,A11C C15A C18U U20G G29C,0.01
17,C10U U38C G44C,0.24
18,A11C A14U A26G U32A G33U U38A,0.01
19,C10U G30A C31U,0.19
20,A11C C15G C18U U20A A41U,0.01
21,C10U G27U U28A C45U,0.32
22,A11C A16G G29A,0.01
23,C10U U28A G33U,0.02
24,A11C A16G G22A U32C,0.01

row,Variant,self-cleavage
1,A11C C13G C23A A39G A41U,0
2,A11C A12U A24C,0.02
3,A11C A12C A25U G30U,0.03
4,A11C A24C G44U C46A,0.04
5,C10U U28G C31G C42U,0.05
6,A11C A26C C46A,0.04
7,A11C A25U C31G,0
8,A11C A41G C42U,0.04
9,C10U U20C C46G,0.46
10,C10U G29U C31G A41G,0.02
11,C10U G35A C46A,0.04
12,C10U G29A U38A,0.05
13,A11C A16G U38A,0.01
14,A11C C15G U28G,0
15,A11C C13U A16C C31A U34G C46A,0
16,C10U G29C C31U U34G,0.2
17,A11C A26C G27C G29U,0.08
18,A11C C18U G19U A41G C45U,0.05
19,C10U G27U G29A C31U,0.11
20,A11C A12C G17U U28C C46U,0.01
21,A11C A12G G19A U28A G29U,0
22,C10U G29U C31A,0.08
23,C10U U28G U34G G40U C45A,0.04
24,C10U U20A G30C,0.45

row,Variant,self-cleavage
1,A11C A12G G21U,0.01
2,A11C A39U C42U,0.03
3,C10U G27U C31U C46U,0.24
4,A11C A12U A16U C18A A25U G29U,0.01
5,C10U U20A A25G U28C,0.14
6,A11C A24G A39C,0
7,A11C A25G U32A,0.01
8,C10U U20G G33A,0.05
9,C10U U20G G33U,0.07
10,A11C A14U G35U,0.01
11,A11C A26U G30U C31U,0.02
12,A11C A16C G35U C37A,0.02
13,A11C C15G A26G,0.01
14,A11C C13G G22U U34A,0
15,A11C A14U G19A A24C,0
16,C10U U38A A41G G44A,0.03
17,A11C C13G C37U,0.02
18,C10U U28A C37U G40A,0.03
19,A11C A16U A24C U43A,0
20,C10U G27U C45U,0.23
21,C10U U20A A39U G40C,0.01
22,A11C A12U G30A,0.08
23,A11C C15G C31A G33A,0
24,A11C A41G G44C,0.02

row,Variant,self-cleavage
1,A11C C18U C37U,0.02
2,A11C C15A A41U,0.05
3,C10U G33U G35C,0.05
4,A11C C13A C23A A24U C45U,0.03
5,A11C C13A G17U A24U,0.01
6,A11C A16C G17U G33C U34C G40C,0.01
7,A11C C18A U38C,0.03
8,A11C C18A G19A A41U G44A,0
9,A11C C15A G27C G44U,0.02
10,A11C A16U G44U C45G,0
11,C10U G29C C31G C37G A39C A41G,0.02
12,A11C C18U A25C C31U U32A A39C C46A,0
13,C10U G29C G30U U34C C42A,0.02
14,C10U U32G C46U,0.04
15,C10U U32G C46A,0.11
16,C10U U20A U43G,0.02
17,A11C A12U G27A G36C,0.06
18,C10U U20A C23U A25G A26G G29U,0.05
19,A11C A14C A24U G27C U32G C37U,0
20,C10U G33A A39G,0.02
21,C10U G29C C31G G35C C37G,0.01
22,A11C A16U G35C U43G,0
23,C10U G27C G33U C37U C42U,0.02

# — the RNAGym collection of RNA variant scans (doi:10.7554/elife.90254)
